This passage reports self-cleavage results from the RNAGym collection of RNA variant scans (doi:10.7554/elife.90254).

Read counts are not given, so values of variants with three or more changes are uncertain.

B1: LINE1-mini (parent)
chain: GGCAGAGCUCAACACAGCGUGGCAAAGUGGCUGUGGCUAGACUGCC

In the data set the parent is B1. Description: self-cleavage, relative activity (ratio to wild type); higher = more cleavage; in vitro, sequencing; the parent is a self-cleaving ribozyme.
Consider CGCAGAGCUCAACUCAGCGUGGCAAAGUGGCUGUCGCUAGACUGCU, for which the self-cleavage was 0.02.

Consider GGCAUAGGUCAAGACUGCGUGACAAAGUGGCUGUGGCUAGACUGCC, for which the self-cleavage was 0.03. In the case of GGCAGAGCUCAACACAGCGUGGCAAAGUGUCUGUGGCUAGACAACC it was 0.1; in that of GGCAGAGCUCAACAGAGCCUGGCAAAGUGGCUGUGGCUAGACUGCU, 0.11.

Turning to GGCAGAGCUCAACAUUCCGUGGCAAAGUGGCUGUGGCUAGACUGCC, the self-cleavage came out at 0.01.

Consider GGCAGAGGUCAACACAGCGUGUCAAAGUGGCUGUGGCUAGACUGCU, for which the self-cleavage came out at 0.03. Turning to GUCAGAGCUCAACACAGCGUGGCAAAGUGGCUGUGGCUCGACUCCC, the self-cleavage was 0. In the case of GGCAGAACUCAACACCGCGUGGGAAAGUGGCUGUGGCUAGACUGCC it was 0.29; in that of GGCAGAGCUCAACAUAGCGUGUCAAAGUGGUUGUGGCUAGACUGCC, 0.07. Take GGCAGAUCUCAACAGAGCUUGGCAAAGUGGCUGUGGCUAGACUGCC: the self-cleavage worked out at 0.03. Take GGCAGAGCUCAAAACAGCGUGGCAAAGUGGUUGUGGUUAGACUGCC: the self-cleavage came out at 0.26. For the variant GGCACAGUUCAAAAUAGCUUGGCAAAGUGGCUGUGGCUAGACUGCG, the self-cleavage came to 0.1. Next, GGGAGAGCUCAACACAGCGGGGCAAAGUGGCUGUGGCUAGACUUCC: 0.91; GGCAGAGCUCAUCACAGCAUGGCAAAGUGGCUGUGGCCAGACUGCC: 0.25; GGCAGACCUCAACGCAGCGUGGCAAAGUGGCUGUGGCUAGACUGUC: 0.07. In the case of GGCAGAGCUAAACACACCGUGGCAAAAUGGUUAUGGCUAGACUGCA it was 0.01; in that of GGCAGAGCUCAACAUAGCGUGGCCAAGUGGCUGUGGCUAGACUUCC, 0.02. Next, GGCAGAGCUCAACACAGCGUUGUAAGGUGGCUGUGGCUAGUCUGCC: 0.47. For the variant GGCAGAGCUCAACACAGCGUCGCAAAGUGGCUCUGGCUUGAUUGCC, the self-cleavage came to 0.02. In the case of GGAAGAGCUCAAACCAGCGUGACGAAGUGGCUUUGGCUAGACUGCC it was 0.1. In the case of GGGAGAGUUCAACAAAGAGUGGCAAAGUGGCUGUGGCUAGACUGCC it was 0.15.

GGCAGAGCUCAAUGCAGUGUGGCAAAGUGGCUGUGGCUAGAUUGCC: the self-cleavage stood at 0.01. Regarding GGCAGAGCUCAACCCAGCGUGGCAAGGUGGCUGUGGCUAGACUCCC, the self-cleavage was determined as 0.01. In the case of GCCAGAGCUCAACACUGAGUCGCAAAGUGGCUGUGGCUAGACUGCC it was 0.11; in that of CGCAGAGCUCAACACAGCGAGGCAAAGUGGCUUUGGCUAGACUUCA, 0.

As for GGCAGAGCUCAACACAGCGUGGCAAAGUGGCUGUUGCGUGACUGUC, the self-cleavage amounted to 0.07.

With GGCAGAGCUUAAUACAGCGUGACAAAGUGGCUGUGGCUAGACUGCA, the self-cleavage is 0.06.

Consider GGCAGAGCUCUACACAGCGCGGCAAUGUGGCUGUAGCUAGACCGCC, for which the self-cleavage stood at 0.01. For the variant GGCAGAGGUAAUCACAGCAUGGCAAGGUGGCUGUGGCUAGCAUGAC, the self-cleavage was found to be 0. As for GGCAGAGAACAAAACAGCGUGGCAAGGUGGCUGUGGCUACGCUGCC, the self-cleavage was 0.03. Next, GGAAGGGUGCAACACAGCGUGGCAAAGUGGCUGUGGCUAGACUGCC: 0.96; GGCAGAGCUCAACACAGCGUGGCAGAGUGGCUGAGCCUAGACUAUC: 0.01. In the case of GGCAGAUCUCAAUACAGCGUGACACAGUGGCUGUGGCUUGACUGCC it was 0.51; in that of GGCAGAGCUCAACACAGCGUGCUAAAGUGGCUGUGGCUAGAGUGCC, 0.06; in that of UGCAAAGCUCAAAACAGCGUGGCAAAGUGGCUGUGUCUAGACUGCC, 0.06. In the case of GGGAGAGCUCAACACAGCGUGGCAUAGUGGCUGUGGCUAGACUGAC it was 0.14; in that of GGCAGAGCUCAACACAGCGUGGCAAAGUGGCAGUGGCUACACUCCC, 0.02. With GGCAGAGGUCAACACAGCGUGGCAAAAUGGCUGUGGCUAGACUGCA, the self-cleavage amounted to 0.05. In the case of GGCAGAGCUCAACACCGCGUGACAAAGUGGCAUUGGCUAGACUGCC it was 0.02; in that of GGCACAGCUCAACACAGCGUGGCAAAGUGUCGUGGGCUAGACUGCC, 0.05. Next, GGCAGAGCUAAAUACAGCUUGGCAAAGUGGUUGUGGCUAGACUGCC: 0.06; GGAAGAGCUGAACACAGCGUGGCAAAGUGGCUGUGGCUGGACUGCC: 0.01; CGCAGAGCUCAACACAGCGUGGCGAAGUGGCUGUGGCUAGACUGCA: 0.25. In the case of GGCAGAGCUCAACACACCGUGGCACAGUGGGUGUGGCUAGACUGCC it was 0.44. Turning to GGCAUACCUCAACACAGCGUGGCAAAGGGUCUGUGGCUAGACUGCC, the self-cleavage amounted to 0.13. In the case of GACAGAGCCAAACACAGCGUGGCAAAAUGGCGGGGGCUAGACUGCC it was 0.01; in that of GGCAGGGCUCAACACAGCGUAGCAAAGUGGCUGUGGCCAGACUACC, 0.07; in that of GGCAGCGCUCUACACAGCGUGGCAAAGUGGCUGUGGCUAGACCGUC, 0. Next, GGCAGAGCUCAACACAGAGUGGCAAAGUGUCUGAGGCUAGACAGCC: 0.06; GGCAGAGCCCAACUUAGCGUGGCAAAGUGGCUGGGGCUAGACUGCC: 0.01; GGCCGAGCUCAAUACAGCGUGGUAAAGUGGCUGUGGGUAGACUGCC: 0.05. Next, GGCAGAGCUCAACAAACCGUGGCAAAGUGGCUGUGGCUCGUCUGCC: 0.01; GGCAGAGGUCAACACAGCGUGGCAUAGUGGCUGUGGCUAGACUGCA: 0; GGCACAGCUCUACACAGCGUGGCAAAGUGGCUGUGGUUAGACUGCC: 0.03. In the case of GGCAGAACGCAACAAAGCGUGGCAAAGCGGCUGUGGCUGGAAUGCC, the self-cleavage amounted to 0.05.

With GGCAGAGCCCAUCACAGCGUUGCAAAGUGGCUGUGCCUAGACUGCC, the self-cleavage is 0.02.

As for GGCAGAGCUCAACUCAGCGUGGCAAAGAGGCUGUGGCUAGACCGAC, the self-cleavage came to 0.05. Next, GGCAGUGCUCAACACAGCGAGGAAAAGUGGCUGUGGCUAGACGGCC: 0.33; GGCAGAGCUCAACACAAAGUGGCAAAGUGUCUGUGGCUAGACUGCC: 0.12. Next, GUCAUAGCUCAACUCAGCGUGGCAAAGUGGCUGUGGCUGGACUGCC: 0.02; GGUAGAGCUGAACACAGCGUGGCAAUGUGGCUGUGGCUAGACUGCC: 0.03; GGCAGAGCUCAACACAGCAUGGCAAUGUGGCUUUGGCUAGACUGCC: 0.11. For the variant GGCAGAUCUCAACACAGCGUGGCAAAGUGGGUGUGGCGAGACUGCA, the self-cleavage came to 0.01. In the case of GGCAGAGCUCAGUAAAGCUAGGCAAAGAGGCUGUGGCUAGACACUC it was 0.01; in that of GGCACAGCUCAACACAGCAUGGCAAAGUGGCUGUGGCUAGGCCGCC, 0.02; in that of GGCAGAGCUCAACAAAGCGUGGCAACGAGGCUGUGGCUAGACUGCC, 0.08. Next, GGCAGAGCUAAACACAGCGUGGCAAAGUGGAUGUGGCUAGAGUGCC: 0.01; GGCAGAUCUCAACACCGCGUGGCAAAGCGGCUGUGGCUAGACUGCC: 0.13. In the case of GGCAGAGAUCAACACUGCGUGGCAAAGUGGCUGUGGCUAAACUGAC it was 0.03. As to GGCAGAGCUCAACACAGCGUGGCAAAGUGGCGGUGGCUAGAGUGCA, the self-cleavage amounted to 0.18.

Take GGCUGAGGCCAACACAGCGUGGCAAAAUGGCUGUGGGUAGCCUGCC: the self-cleavage was found to be 0. Next, GGUAGAGCUCAACACAGCGUGGCUAAGUGGCUCUGGCUGGAAUGCC: 0.05; GGCACAGCUCAACUCAGCGUGGCACAGUGGCUGUGGCUAGACUGCC: 0.03.

With GGCAGAGCUCAACACAGCCUGUCAAAGUGGCUGUGGCUAGAAUGCC, the self-cleavage was determined as 0.05. In the case of GGCAGAUCCCAACACAGCGUUGCAAAGUGGCUGUGGCUAGACUGCC it was 0.02; in that of GGCAGAGCUCAACACAGCGUGUCAAACUGGCUGUGGCUAGACUGCA, 0.24. In the case of GGCAGAGCUCAACACAGCGUGGCAAACUGGCUGACGCUAGGCUGCG it was 0.08. Next, UGCAGAGCUCAACACAGCGCGGCAAAGUAGCUCUGGCUAGACUGCC: 0.01; GGCCGAGCUCAACACAGCGUUGCAAAGUGUCUGUGGCUAGACUGUC: 0.25; GGCAGAGCUAAACACACCGUGGCAAAGUGGCUGAGGCUAGACUGCC: 0.02. GGCAGUGCUCCAUACAGCGUGGCAACGCGGCUGUGGCUAUACUGCC: the self-cleavage came to 0.04. In the case of GGCACAGCUCAACACAGCGGCGCAAAGUGGCUGUGGCUAGACUGCC it was 0.03; in that of GGCAGAGCUCAACCCAGCGUGGCAAAGUGGCUAUGGCUAUACUGCC, 0.06; in that of GGCAGAGCUGAACACAGCGUGGCAGUGUGGCUGUGGCUAGACAGUC, 0.01. Next, GGCAGAACUCAACACAGCGUGAUAAAGUGGCUGUGGCGAGACUUCA: 0.01; GGCAGAGCUCACCACAGAGUGGCAAAGAGUCUGUGGCUACACUGCC: 0.01; GGCAGAGCUCAACACAGCGUGGCAUUGUCGCUAUGGCUAGACUGCC: 0.05. For the variant GUCAGCGCUCAACACAGCGUGGAAAAGUGGCUGUGGCUAGACUGCC, the self-cleavage amounted to 0.04.

As for GGCAGAGCUCAACAAAGGGAAGCAAAGUGGCCGUGGCUAGACUGCG, the self-cleavage is 0.02. GGCAUAGCGCAACAAAGCGUGGCAAAGUGGCUGUGGCUAGACUGCC: the self-cleavage is 0.24. Next, AGCAGAGUUCAACACAGCGUGGCAGAGUGGCUUUGGCUAGACUGCC: 0.05; GGCACAGCUCACCACAGCGUGGCAAAGUGGCUGUGGCAAGACUGCC: 0.01.

As to GCCAGAGCUCAACUCAGCGUGGAAAAGUGGCUGUGGCUAGACUGCC, the self-cleavage turned out to be 0.08. Next, GGUAGAGCUCAACACAGCGUGGCAAAGUGUCUGUGGCUAGACUCCG: 0.01; GGCAGAGCUCGACACAGCGUGGAAAAGUGGCGGUGGCUAGACUGCC: 0.02. For the variant GGCAGAGCUCAACCCAGCGUGGAAAAGUUUCUGUGGCUAGACUGCC, the self-cleavage was 0.1. Next, GGCAUAGCUCAACACAGGGUGGCAAAGUGGCUGUGGCUAGACUACC: 0.04; GGAAGAGUUCAACAGAGCGUGGAAAGGUGGAUCUGGCUAGACUGCC: 0.51.

Consider CGCAGACCUCAACACAGCGUGGCAAAGUGGCUUCGGCUAGACUGCA, for which the self-cleavage is 0.05.

For GUCAGAGCUCAACACAGCGUGGCAAAGUGGCUGUGGCUAGAAAGCC, the self-cleavage came to 0.07. In the case of GGUAGAGCACAACACAUCGUGGUAAAGUGGCUCUGGCUAGACUGCU it was 0.05; in that of GGCAGAGCUCAAGACAGCGUAGCAAAGUGGCUGUUGCUAGACUGCC, 2.46. Next, GGGAGAGCUCAAUACAGCGUGGCGAAGUGGCUGUGGCUAGACUGCC: 0.1.

For the variant GGCAGAGCUCAACACAGCGGGGGAAAGGGGCUGUCUCUAGACUGCU, the self-cleavage was determined as 0.01. Next, GGCAGAGCUCAACACAGCGUGGCAAAGUGGCUGUGGCGAGACGGCA: 0.04; GGCAGAGGUCAAGACAGCGUGGCAACGUGGCUGUGGCUAGACUGCC: 0.18; GUCAUAGCUCAACACAGCGUGGCACAGUGGCUGUGGCUAGACUGCC: 0.04.

AGAAGAGCUCAACACAGCGUGACAAAGUGGCUGUGGCAAGACUGCC: the self-cleavage was 0.98. In the case of GGCAGAGCUCAACACCGCGUGGCGAAGUGGCUGUGCCUAGACUGCC, the self-cleavage was found to be 0.01. Next, GGCAGAGCUCAUCACAGCGGGGCAAAGUCGCUGUCGCUAAACUGCC: 0.05; GGCAGAACUCAACACAGCGUGGCAAAGUGGCUGUGGCUAAAGUGCC: 0.03. Regarding UGCAGAGCUGAAGACAGCGUGGCAAAGUGGAUGUGGCUAGACUGCC, the self-cleavage is 0.01.
